Results: a collection of fitness landscapes (doi:10.1016/j.celrep.2020.107928)
In all, about 81,000 sequences were measured (“one-hybrid fitness for binding parS DNA”: median about -0.17, highest 2% from about 0.51 on). The list shows a part of the results.

B1: Caulobacter ParB omega fusion; a variant is named by its letters at X, in order, B8GW30 (parent)
chain: MESVVVGEPGMSEGRRGLGRGLSALLGEVDAAPAQAPGEQLGGSREAPIEILQRNPDQPRRTFREEDLEDLSNSIREKGVLQPILVRPSPDTAGEYQIVAGERAWRAAQRAGLKTVPIMVRELDDLAVLEIGIIENVQRADLNVLEEALSYKVLMEKFERTQENIAQTIGKSXSHVANXMRLLXLPDEVQSYLVSGELTAXHARAIAAAADPVALAKQIIEGGLSVRETEALARKAPNLSAGKSKGGRPPRVKDTDTQALESDLSSVLGLDVSIDHRGSTGTLTITYATLEQLDDLCNRLTRGI

Variants of: B1
Assay: one-hybrid fitness for binding parS DNA (scaled: cognate 1, non-cognate 0); higher = stronger binding
Conditions: with parS DNA site
Summary of the method: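 On M9-minus-histidine containing 0.1 mM IPTG and 5 mM 3-AT, E. coli USO cells with a HIS3 reporter, site 19 bp from the promoter, grew 48 hours at 37°C to select Caulobacter ParB libraries randomised at four specificity codons. Plasmids from before and after were Illumina-sequenced, with three replicate libraries pooled and variants under 10 reads left out. Fitness is the log change in variant-to-wild-type read ratio, rescaled against cognate and non-cognate.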

| Variant | one-hybrid fitness for binding parS DNA |
| --- | --- |
| HSRT | ≤ 0.2 |
| GFRN | ≤ 0.2 |
| MAFS | ≤ 0.2 |
| EGHI | ≤ 0.2 |
| YWPG | ≤ 0.2 |
| DPKG | ≤ 0.2 |
| AGQD | ≤ 0.2 |
| QDIA | ≤ 0.2 |
| HQHT | ≤ 0.2 |
| LPEL | ≤ 0.2 |
| CNMM | ≤ 0.2 |
| AHTR | ≤ 0.2 |
| QDYC | ≤ 0.2 |
| SFNR | ≤ 0.2 |
| ESFV | ≤ 0.2 |
| VAHL | ≤ 0.2 |
| IQRA | ≤ 0.2 |
| RIWG | 0.985 |
| HKVI | ≤ 0.2 |
| SHFT | ≤ 0.2 |
| VHRM | ≤ 0.2 |
| LMTE | ≤ 0.2 |
| NFLM | ≤ 0.2 |
| KRKT | ≤ 0.2 |
| CGTT | ≤ 0.2 |
| QEPQ | ≤ 0.2 |

| Variant | one-hybrid fitness for binding parS DNA |
| --- | --- |
| KWKR | ≤ 0.2 |
| AWMS | ≤ 0.2 |
| TLEN | ≤ 0.2 |
| CLMT | ≤ 0.2 |
| PRVS | ≤ 0.2 |
| QQWG | ≤ 0.2 |
| LLGW | ≤ 0.2 |
| LDTE | ≤ 0.2 |
| FVTV | ≤ 0.2 |
| IPKR | ≤ 0.2 |
| TTTQ | ≤ 0.2 |
| LDAT | ≤ 0.2 |
| PYSV | ≤ 0.2 |
| RYAP | ≤ 0.2 |
| QMDA | ≤ 0.2 |
| QAWL | ≤ 0.2 |
| RWHS | 0.894 |
| HQRL | ≤ 0.2 |
| FIYR | ≤ 0.2 |
| MRKG | ≤ 0.2 |
| VEST | ≤ 0.2 |
| REPC | ≤ 0.2 |
| QETF | ≤ 0.2 |
| TGFT | ≤ 0.2 |
| TFSY | ≤ 0.2 |
| QSHE | ≤ 0.2 |

| Variant | one-hybrid fitness for binding parS DNA |
| --- | --- |
| FKRR | ≤ 0.2 |
| ALYV | ≤ 0.2 |
| EDKR | ≤ 0.2 |
| LTVR | ≤ 0.2 |
| QQWL | ≤ 0.2 |
| MRPG | ≤ 0.2 |
| RDGN | ≤ 0.2 |
| NPPD | ≤ 0.2 |
| ITDS | ≤ 0.2 |
| TEVE | ≤ 0.2 |
| MCTM | ≤ 0.2 |
| MQPN | ≤ 0.2 |
| NFER | ≤ 0.2 |
| RRGC | 0.593 |
| FQDS | ≤ 0.2 |
| NPVL | ≤ 0.2 |
| RADC | 0.856 |
| CLST | ≤ 0.2 |
| VSPM | ≤ 0.2 |
| KKKR | ≤ 0.2 |
| KLTA | ≤ 0.2 |
| CSDG | ≤ 0.2 |
| TVAT | ≤ 0.2 |
| NHTR | ≤ 0.2 |
| EKQS | ≤ 0.2 |
